PubChem BioAssay AID488969 (Vanderbilt High Throughput Screening Facility, 2010)
The full ranking holds about 110,000 compounds; the median of “z-score” is about -0.1, and the highest 2% start at about 2. Some of the results follow.

target: Metabotropic glutamate receptor 8 (Rattus norvegicus) (UniProt P70579); assay: rat mGluR8 modulators via GIRK flux, primary screen, cell-based, thallium flux, HTS (AID 488969); details: HEK293 rat mGluR8, GIRK (G protein-gated inwardly rectifying potassium channel) thallium flux, FluoZin2; at 10 µM; stronger effect = higher value; submaximal glutamate (EC20) added with thallium
Chain of UniProt P70579 (P70579 whole entry, looked up): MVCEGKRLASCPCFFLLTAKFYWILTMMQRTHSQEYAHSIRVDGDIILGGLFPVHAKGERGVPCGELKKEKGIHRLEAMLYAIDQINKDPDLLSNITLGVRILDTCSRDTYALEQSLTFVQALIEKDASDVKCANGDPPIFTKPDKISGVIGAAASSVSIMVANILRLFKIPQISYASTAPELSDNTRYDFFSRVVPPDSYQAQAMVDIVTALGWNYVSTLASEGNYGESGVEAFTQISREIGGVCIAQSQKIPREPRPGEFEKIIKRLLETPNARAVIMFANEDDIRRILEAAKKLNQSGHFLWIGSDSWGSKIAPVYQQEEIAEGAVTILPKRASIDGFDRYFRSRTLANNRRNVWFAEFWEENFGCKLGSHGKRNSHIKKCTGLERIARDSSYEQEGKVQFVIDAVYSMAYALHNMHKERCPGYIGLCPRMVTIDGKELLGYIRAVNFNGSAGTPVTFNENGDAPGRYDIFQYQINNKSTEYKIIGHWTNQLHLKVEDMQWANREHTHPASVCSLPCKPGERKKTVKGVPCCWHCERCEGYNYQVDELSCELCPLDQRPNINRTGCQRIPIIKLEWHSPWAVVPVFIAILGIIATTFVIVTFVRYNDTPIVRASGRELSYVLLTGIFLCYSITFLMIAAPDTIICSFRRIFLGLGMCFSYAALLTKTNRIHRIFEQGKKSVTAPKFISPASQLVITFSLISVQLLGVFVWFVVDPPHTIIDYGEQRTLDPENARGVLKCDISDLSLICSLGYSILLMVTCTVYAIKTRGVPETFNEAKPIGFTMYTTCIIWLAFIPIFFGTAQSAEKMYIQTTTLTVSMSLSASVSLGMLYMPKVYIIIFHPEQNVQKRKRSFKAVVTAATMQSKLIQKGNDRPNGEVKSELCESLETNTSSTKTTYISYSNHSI

SMILES | z-score
CCCC(C(=O)NC1CCCC1)N(Cc1ccc2c(c1)OCO2)C(=O)c1snc(C(N)=O)c1N (configuration not stated) | -0.366
Cc1ccc(-c2nnc(-n3ncc(C#N)c3N)c3ccccc23)cc1C | 0.49
CCOC(=O)CC(=O)CSc1ncc(C(=O)OCC)c(N)n1 | 0.645
Brc1ccccc1OCCOc1cccc2cccnc12 | -0.0856
CC(C)(C)N=C1NN=C(c2cc3ccccc3o2)CS1 | -0.336
CCCCn1c(SCC(=O)c2ccc(OCC)cc2)nc2cc(S(N)(=O)=O)ccc21 | -0.238
O=C(NCc1ccccn1)c1c(Cl)cccc1Cl | 0.0849
O=C(Nc1nccs1)c1c(O)c2cccc3c2n(c1=O)CCC3 | 0.325
CN(CCO)c1ccc([N+](=O)[O-])cc1C(=O)O | 0.404
O=C(NCc1ccccc1)c1ccc(C(=O)N(C2CCCCC2)C2CCCCC2)cc1 | 0.259
Cc1cc(=O)[nH]c(S/C=C/c2ccccc2)n1 | -0.0122
COC(=O)CSC1=C(C#N)C(c2sccc2C)CC(=O)N1 (configuration not stated) | 0.174
Cc1cc(=O)oc2cc(NC(=O)C3CC(=O)N(Cc4ccccc4)C3)ccc12 (configuration not stated) | -0.14
Cc1sc(NC(=S)NC(=O)C2CCCCC2)c(C(N)=O)c1C | -0.146
O=C(CSc1nnc2ccccn12)Nc1cccc(-c2nc3ccccc3s2)c1 | -0.338
CC(C(=O)OCC(=O)Nc1ccc2c(c1)OCO2)N1C(=O)c2ccccc2C1=O (configuration not stated) | 0.35
COCCn1nnnc1C(c1ccccn1)N1CCN(c2cc(C)ccc2C)CC1 (configuration not stated) | -0.362
O=C(Cc1cc(=O)[nH]c(=O)[nH]1)NCCN1CCOCC1 | -0.206
CCOC(=O)c1c(C)oc2c1c(C(c1cccnc1)N1CCOCC1)c(O)c1ccccc12 (configuration not stated) | -0.155
O=C(Cc1cccs1)Nc1ccc(-c2nnc(-c3ccccc3)o2)cc1 | -0.166
COc1cc(NC(=O)Cn2nnc(-c3ccccc3N)n2)cc(OC)c1 | 0.794
FC(F)(F)c1cc(-c2ccccc2)nc(-n2cncn2)n1 | 1.2
O=C(CSc1nc2ccccc2[nH]1)Nc1nc(-c2ccc(Br)cc2)cs1 | -0.161
COC(=O)c1cc(NC(=O)CSc2nnc(CN3CCOCC3)n2C)ccc1Cl | -0.506

SMILES | z-score
CC1Sc2n(c3ccccc3[n+]2C)N=C1c1ccccc1 (configuration not stated) | -0.138
CCOC(=O)c1sc(-c2ccccc2)cc1NC(=O)Nc1ccc([N+](=O)[O-])cc1 | -0.179
CCC(CCC(=O)Nc1nncs1)C(=O)O (configuration not stated) | 0.562
CCOc1ccc(CC(=O)Nc2c(C(N)=O)oc3ccc(Br)cc23)cc1OCC | -0.0702
O=C(NC1CCCC1)c1ccc(CSCc2ccccc2F)o1 | -1.68
CC(C)(C)C(=O)[C@@H]1[C@@H]2C(=O)N(c3ccc4c(c3)OCCO4)C(=O)[C@@H]2C2c3ccccc3C=CN21 (some centres not stated) | 0.117
Cc1nn(-c2ccccc2)c2sc(C(=O)NNC(=O)COc3cccc4ccccc34)cc12 | 0.232
Cn1c(SCc2nc3ccccc3n2CCO)nc2ccccc21 | -0.0415
CCn1c(SCc2c(F)cccc2Cl)nnc1-c1ccco1 | -0.892
O=[N+]([O-])c1ccc(-c2ccn[nH]2)o1 | 0.158
CC(=O)Nc1ccc(OCC(O)Cn2nc(C)c(Br)c2C)cc1 (configuration not stated) | 0.777
COC(=O)c1cc(NC(=O)c2c(F)c(F)c(F)c(F)c2F)cc(C(=O)OC)c1 | -0.107
Cc1ccc(-c2cc(C(=O)NCc3ccccn3)no2)cc1 | -0.475
CC(C)c1ccc(C(CC(=O)c2ccc(Cl)cc2)C(=O)O)cc1 (configuration not stated) | 0.0781
C=CCNc1nc(NCCO)nc(N2CCCC2)n1 | -0.225
CCOc1ccccc1N1CCN(C(=O)Nc2ccc(F)c(Cl)c2)CC1 | -0.531
CNS(=O)(=O)c1ccc(NC(=O)C2c3ccccc3Oc3ccccc32)cc1 | -0.0141
CCOC(=O)c1c(C)n(C)c2c(C)cc(O)c(OC(=O)CC)c12 | 0.126
CCCCn1c(=N)n(CC(=O)c2ccco2)c2ccccc21 | -0.268
O=C(CCl)N1N=C(c2ccco2)CC1c1cccs1 (configuration not stated) | -0.133
CCN(CC)CCNC(=O)COc1ccc(Cl)cc1Cl | -0.304
C/C(=N\NC(=S)NCc1ccccc1)c1ccc2ccccc2c1 | 2.12
COC(=O)c1ccc(NC(=O)CSC2=NCCN2)cc1 | 0.00225
CC(C)CNS(=O)(=O)c1ccc(CCC(=O)N2CCOCC2)cc1 | -0.54

SMILES | z-score
Cc1ccc(-n2[nH]c(=O)c3cccnc32)cc1 | 0.0489
Cc1ccsc1C(=O)Nc1ccc2c(c1)OCCO2 | -0.163
Cc1ccc(NC(=O)CSc2nc3ccccc3c(=O)n2CCCC(=O)N2CCCC2)cc1 | 0.165
Cc1cccc(NC(=O)CCN2C(=O)C3C4CCC(C4)C3C2=O)c1C (configuration not stated) | -0.197
CN1CCN(C(=O)c2ccc3c(=O)n4c(nc3c2)CCCCC4)CC1 | 0.0326
CC(=O)Nc1ccc(NC(=O)COC(=O)Cc2cccs2)cc1 | -0.0463
COc1cc(C)c(C)cc1S(=O)(=O)N1CCCCC1c1cccnc1 (configuration not stated) | -0.191
O=C1OC(c2ccccc2)=NC12CC2c1ccc(Cl)cc1 (configuration not stated) | -0.219
CCOC(=O)C1CCN(S(=O)(=O)c2ccc(OCC)cc2)CC1 | 0.207
CCSc1nc(N)c(C#N)c(-c2ccccc2Cl)c1C#N | -0.236
Cn1c(NC(=O)Cc2cccs2)cc(=O)n(C)c1=O | 0.422
COc1ccc(N/C(=C(/C(Cl)=C(Cl)Cl)[N+](=O)[O-])n2nnc3ccccc32)cc1OC | -0.105
O=C(COC(=O)c1ccccc1)Nc1ccccc1Sc1ccccc1 | -0.256
COc1ccc(-n2ncc3c(NCCCN4CCOCC4)ncnc32)cc1 | -0.0546
O=Cc1ccc(OC(=O)c2cc(Cl)nc3ccccc23)cc1 | -0.764
Cn1c(=O)c(Sc2ccc(Cl)cc2)c(O)c2ccccc21 | -0.203
COc1cc(/C=N/NC(=O)/C(=C/c2ccccc2)CCO)ccc1O | -0.0886
COC(=O)c1ccc(N2C(=O)CC(N3CCOCC3)C2=O)cc1 (configuration not stated) | -0.101
Cc1cc(NC(=O)CCSc2ccccc2)ccc1Br | -0.204
CN1C(C)(C)CC(NC(=O)CCC(=O)NC2CC(C)(C)N(C)C(C)(C)C2)CC1(C)C | 0.24
CCCNC(=O)NS(=O)(=O)c1cnccc1Sc1ccc(Cl)cc1 | 0.596
CC1=C(C(=O)Nc2cccnc2)C(c2cccnc2)n2ncnc2N1 (configuration not stated) | 0.0175
O=C(/C=C/c1ccc(S(=O)(=O)N2CCOCC2)cc1)NCc1ccc(Cl)cc1 | -0.216
CCOC(=O)c1cccnc1SCC(=O)N(CC)c1cccc(C)c1 | -0.316
